According to paper PMC9967311:
Results are given in words; binding and its absence hold for the method and conditions named. For part of these data: In cells and extracts the contact can be indirect. Some entries that bind do so weakly or less than the wild type. Blank lines part the entries; values can stand above or below the substance they belong to.

Chains of the proteins cited; added tags and fusions are not shown. Lines headed by an entry give the natural chain unless they say otherwise; changes in a name come on top.
UniProt P49407: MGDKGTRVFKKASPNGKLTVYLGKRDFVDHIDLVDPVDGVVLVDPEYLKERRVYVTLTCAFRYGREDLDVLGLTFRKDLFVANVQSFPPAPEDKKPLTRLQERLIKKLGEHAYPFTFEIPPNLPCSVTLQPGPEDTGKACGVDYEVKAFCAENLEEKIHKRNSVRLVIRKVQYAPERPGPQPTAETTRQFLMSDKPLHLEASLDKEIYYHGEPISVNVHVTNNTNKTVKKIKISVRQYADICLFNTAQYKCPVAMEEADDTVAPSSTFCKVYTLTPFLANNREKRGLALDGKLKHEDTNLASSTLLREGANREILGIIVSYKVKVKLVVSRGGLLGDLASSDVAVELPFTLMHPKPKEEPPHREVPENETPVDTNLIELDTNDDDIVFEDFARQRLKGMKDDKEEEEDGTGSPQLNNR
UniProt Q9Y5X1: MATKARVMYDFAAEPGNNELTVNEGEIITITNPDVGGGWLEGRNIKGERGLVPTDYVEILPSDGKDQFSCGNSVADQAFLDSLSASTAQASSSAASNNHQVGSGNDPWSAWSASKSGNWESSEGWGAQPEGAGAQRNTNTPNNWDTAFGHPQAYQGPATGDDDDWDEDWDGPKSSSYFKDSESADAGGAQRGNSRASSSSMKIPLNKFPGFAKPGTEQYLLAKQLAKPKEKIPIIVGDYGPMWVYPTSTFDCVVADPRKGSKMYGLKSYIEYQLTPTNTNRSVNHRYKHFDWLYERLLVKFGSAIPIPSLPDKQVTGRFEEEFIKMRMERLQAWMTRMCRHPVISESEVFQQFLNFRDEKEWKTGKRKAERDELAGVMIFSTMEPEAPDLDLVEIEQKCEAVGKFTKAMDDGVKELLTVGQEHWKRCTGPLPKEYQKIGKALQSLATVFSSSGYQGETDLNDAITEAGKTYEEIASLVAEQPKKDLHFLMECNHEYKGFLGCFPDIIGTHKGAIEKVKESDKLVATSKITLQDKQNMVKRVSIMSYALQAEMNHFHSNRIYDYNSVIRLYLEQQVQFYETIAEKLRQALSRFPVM
UniProt Q92783: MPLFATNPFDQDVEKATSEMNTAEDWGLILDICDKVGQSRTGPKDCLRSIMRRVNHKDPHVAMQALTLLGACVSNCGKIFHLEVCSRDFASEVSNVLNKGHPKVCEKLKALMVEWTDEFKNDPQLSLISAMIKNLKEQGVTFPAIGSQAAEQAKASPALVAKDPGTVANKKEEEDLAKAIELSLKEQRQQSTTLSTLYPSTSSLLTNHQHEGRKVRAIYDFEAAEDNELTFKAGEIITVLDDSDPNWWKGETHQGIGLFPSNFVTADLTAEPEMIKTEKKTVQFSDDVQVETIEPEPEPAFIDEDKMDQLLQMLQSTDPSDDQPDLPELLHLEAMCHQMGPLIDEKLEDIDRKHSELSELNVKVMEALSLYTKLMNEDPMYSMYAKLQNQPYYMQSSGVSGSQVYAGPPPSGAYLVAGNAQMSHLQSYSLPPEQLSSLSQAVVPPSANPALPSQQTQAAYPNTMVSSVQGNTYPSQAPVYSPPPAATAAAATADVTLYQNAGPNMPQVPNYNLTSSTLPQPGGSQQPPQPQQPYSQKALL
UniProt Q9Y6W5: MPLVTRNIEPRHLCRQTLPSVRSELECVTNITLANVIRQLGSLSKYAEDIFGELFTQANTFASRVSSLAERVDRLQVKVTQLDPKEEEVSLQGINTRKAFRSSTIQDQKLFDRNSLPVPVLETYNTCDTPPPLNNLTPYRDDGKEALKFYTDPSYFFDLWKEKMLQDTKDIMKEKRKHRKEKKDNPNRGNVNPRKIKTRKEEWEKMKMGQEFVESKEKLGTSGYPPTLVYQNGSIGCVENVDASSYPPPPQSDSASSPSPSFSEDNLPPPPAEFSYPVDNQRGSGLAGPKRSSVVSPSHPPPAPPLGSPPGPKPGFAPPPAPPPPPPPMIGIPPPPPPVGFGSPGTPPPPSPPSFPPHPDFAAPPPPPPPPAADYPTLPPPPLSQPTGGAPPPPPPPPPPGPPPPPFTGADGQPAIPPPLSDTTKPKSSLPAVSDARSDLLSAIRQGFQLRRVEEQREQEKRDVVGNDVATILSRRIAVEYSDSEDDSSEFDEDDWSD
UniProt Q9Y6K9: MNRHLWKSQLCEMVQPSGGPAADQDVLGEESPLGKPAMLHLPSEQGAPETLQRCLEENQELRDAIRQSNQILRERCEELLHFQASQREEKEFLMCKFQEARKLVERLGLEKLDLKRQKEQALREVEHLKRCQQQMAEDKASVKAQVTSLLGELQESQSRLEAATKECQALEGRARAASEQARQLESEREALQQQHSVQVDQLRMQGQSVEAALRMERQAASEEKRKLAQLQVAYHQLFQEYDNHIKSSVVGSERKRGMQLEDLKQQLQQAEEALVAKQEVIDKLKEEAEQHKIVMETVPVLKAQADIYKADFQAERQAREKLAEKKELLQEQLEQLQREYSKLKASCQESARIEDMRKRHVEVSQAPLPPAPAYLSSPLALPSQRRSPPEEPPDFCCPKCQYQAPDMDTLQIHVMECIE

Key:
GST-tagged βarr1 [1] = target: GST-tagged βarr1 (UniProt P49407); assay: pull-down; GST-βarr1 or GST (~1 µM) immobilised on glutathione resin, incubated with purified His-SNX9 (0.3 µM) or His-WAVE2 (0.5 µM) ~18 h at 4 °C; 20 mM Tris-HCl pH 7.5, 150 mM NaCl, 0.1% Triton X-100; immunoblotting; both purified
His-tagged βarr1 = His-tagged βarr1 (UniProt P49407); assay: pull-down; His-βarr1 immobilised on metal affinity (cobalt) resin, incubated with cleared HeLa cell lysate (400-600 µg) 2 h at 4 °C; 20 mM Tris-HCl pH 7.5, 150 mM NaCl, 0.1% Triton X-100; eluted with 200 mM imidazole; immunoblotting; only the target purified
GST-tagged βarr1 [2] = target: GST-tagged βarr1 (UniProt P49407); assay: pull-down; GST-βarr1 or GST (~1 µM) immobilised on glutathione resin, incubated with HeLa cell lysate (400-600 µg) ~18 h at 4 °C; 20 mM Tris-HCl pH 7.5, 150 mM NaCl, 0.1% Triton X-100; immunoblotting; only the target purified
FLAG-tagged SNX9 = FLAG-tagged SNX9 (UniProt Q9Y5X1); assay: co-IP; HEK293 cells transfected with FLAG-SNX9 and wild-type βarr1 or βarr1-R169E; lysis buffer 2 (20 mM Tris-HCl pH 7.4, 150 mM NaCl, 0.1% Triton X-100); M2 anti-FLAG antibody overnight at 4 °C, protein G agarose; immunoblotting
His-tagged SNX9 = His-tagged SNX9 (UniProt Q9Y5X1); assay: pull-down; His-SNX9 (0.45 µM) immobilised on metal affinity resin, incubated with purified untagged wild-type βarr1 or βarr1-R169E (0.15 µM by the legend; equimolar 1 µM by the methods) 2 h at 4 °C; immunoblotting; both purified
FLAG-STAM1 = FLAG-STAM1 (UniProt Q92783); assay: co-IP; COS-1 cells transfected with FLAG-STAM1 and βarr1-APEX2; cleared lysates in IP buffer (50 mM Tris-HCl pH 7.5, 150 mM NaCl, 0.5% NP-40); M2 anti-FLAG antibody overnight at 4 °C, protein G agarose; immunoblotting

Substance: His-tagged WAVE2 (from UniProt Q9Y6W5 1-498)
binding (GST-tagged βarr1 [1]): binds

Substance: NEMO (from UniProt Q9Y6K9 1-419)
binding (His-tagged βarr1): no binding

Substance: preactivated βarr1 (R169E) (from UniProt P49407 1-418)
binding (FLAG-tagged SNX9): binds

Substance: β-arrestin1-APEX2 (from UniProt P49407 1-418)
binding (FLAG-STAM1): binds

Other lines, results leading:

binding (GST-tagged βarr1 [2]): binds
Substance: WAVE2 (from UniProt Q9Y6W5 1-498)

binding (His-tagged SNX9): binds
Substance: untagged βarr1-R169E (from UniProt P49407 1-418)
